# Laboratory results published in the supplement of paper PMC3334620.
# Over roughly 33,000 sequences, “E-score (-0.5 to 0.5)” has its median near -0.04; the highest 2% begin near 0.36. This is one part of the list.
# Biological target: T1, Hmlalpha2 (UniProt P0CY09)
# T1 sequence: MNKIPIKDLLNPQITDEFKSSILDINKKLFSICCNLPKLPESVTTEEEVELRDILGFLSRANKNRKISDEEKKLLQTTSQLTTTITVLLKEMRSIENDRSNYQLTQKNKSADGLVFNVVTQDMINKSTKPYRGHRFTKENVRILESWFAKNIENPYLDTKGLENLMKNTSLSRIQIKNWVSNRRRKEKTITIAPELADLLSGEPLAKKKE
# Assay: PBM E-score (8-mer binding enrichment) (E-score (-0.5 to 0.5)); higher = stronger / more preferred TF binding; most listed sequences are background and not binding sites
# Conditions: protein concentration: 200 nM; construct: GST-full length
# In short: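 Masliner-normalised scans of fluorescent anti-GST signal were the basis for scoring. That signal came from GST-tagged yeast transcription factors applied at about 100-200 nM to double-stranded universal all-10-mer Agilent arrays on fresh or once-stripped slides. Each ungapped eight-base word, pooled with its reverse complement, received an E-score from the Universal PBM Analysis Suite.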
row,Sequence,PBM E-score
1,CTCGTAGA,-0.0578
2,AGCTTACA,0.3
3,AAACTATC,-0.00765
4,GGCCAATA,-0.0158
5,CTGGGTGC,-0.351
6,ACATCATC,0.105
7,ACCGGCGA,-0.291
8,TACTGACA,0.166
9,CATATAGG,-0.067
10,ATAAGCAC,0.156
11,CTCTATAA,0.0559
12,ACTGTGAT,-0.127
13,GGGGGCGA,-0.352
14,AGTCTCAC,-0.207
15,CATGAACG,-0.00018
16,CTGCGTAC,0.186
17,CTGGCACC,-0.331
18,CAGCCACA,-0.111
19,AATCGATT,0.145
20,CCCAAGCC,-0.214
21,CCAGATGA,-0.12
22,TAGGTCCA,0.124
23,ATTATCAC,0.243
24,TATCTTAA,0.159
25,AATACGTA,0.317

row,Sequence,PBM E-score
1,CAACGGTA,-0.207
2,ATAAGGAC,-0.0325
3,ACACGTGC,0.331
4,CACAGCAG,0.0881
5,ACGGGAGC,-0.0847
6,TATCGTAA,0.263
7,ACCGCGTC,0.113
8,AAAAGCAG,-0.156
9,GGTGATAC,-0.262
10,ATTAGCAA,0.213
11,ACCGCCGC,-0.0583
12,AAAGGTTA,-0.0358
13,AGGCCCAT,-0.267
14,GAGGCCCC,-0.353
15,CTAACCTC,-0.0647
16,TCTATAGA,-0.124
17,GCGCCCAA,-0.161
18,AAAGGAAC,0.134
19,CCGAGAGC,-0.296
20,GCATGGCA,0.013
21,CACCGCAC,-0.219
22,GCGAAACC,0.104
23,CAGCTTGG,-0.199
24,ACGGGTAA,0.128
25,CAACTTTA,0.198

row,Sequence,PBM E-score
1,GAAACGGC,-0.0848
2,CCAAGCAC,0.0204
3,GCCCGAGA,-0.0895
4,ATATACAA,0.343
5,GATCACAA,0.0153
6,TATCAAAA,0.173
7,CTCGTCAC,-0.0377
8,ACTACATC,0.275
9,GCTAAGCA,-0.107
10,GTAAGATA,0.152
11,ACCCTGGC,-0.248
12,CGTTGTAA,0.368
13,CACATTGA,0.097
14,AACGTAGT,0.218
15,ATATGGTA,-0.0997
16,GGACGAAC,0.186
17,AAATAATG,0.214
18,CCGAATAC,0.229
19,CTCACGAG,-0.271
20,CTCAATTC,-0.0489
21,AGAGGTTC,-0.126
22,ATCATGCA,-0.0495
23,GGTGTTAA,0.361
24,GCCGGTCA,-0.234
25,CGAGTTAC,0.221

row,Sequence,PBM E-score
1,ACCATTGC,-0.0219
2,GCGAAACA,0.133
3,GTGGGGAA,0.0486
4,GGCCTGTA,0.0301
5,CCTCTTGA,-0.157
6,CTGCGCAC,-0.0954
7,AAGGCCAT,-0.134
8,GTGTGTAA,0.465
9,ACGATCGT,0.16
10,AGAACCAC,-0.188
11,GACTTTCA,-0.214
12,GACAACCC,-0.0305
13,ATACACGG,0.445
14,AGCGGATG,-0.0721
15,CTGTCCGC,-0.188
16,TGATAGCA,0.0912
17,ATGTAAAT,0.477
18,AAATGATA,0.237
19,GCACAAGC,-0.00899
20,AGGGGCCC,-0.228
21,CTAATTAG,0.00067
22,CGGCACTC,-0.213
23,ATTCAGAA,-0.017
24,AGAGCTAC,0.0202
25,CCGAAGGA,-0.149

row,Sequence,PBM E-score
1,CACGATCC,0.199
2,CGGTGCAC,-0.188
3,CTATAGCC,-0.444
4,ACTATTCA,0.0524
5,AAGCGCTT,0.0755
6,CATGGCCC,-0.133
7,ATCCGGTG,0.169
8,CCGAGACA,-0.133
9,CCGTATAC,0.0388
10,TCCGTTAA,0.0489
11,GGGACAAA,-0.107
12,CTCCAGAC,-0.181
13,CGGTTCCC,-0.17
14,CAACCGCC,-0.0495
15,TAGGTTAA,0.245
16,CTTATGTC,0.117
17,TATGTGAA,0.294
18,GCCTAACC,-0.105
19,CAAAGTCC,-0.191
20,TAGAGTAA,0.132
21,AAGGTTCG,-0.0772
22,AGATCAAG,0.137
23,GTTGGCAA,0.167
24,CCGTGTCC,0.0408
25,ACGTATCA,0.193

row,Sequence,PBM E-score
1,CCAGGTAA,0.229
2,AACTAATA,0.283
3,CCCCTTCG,-0.228
4,CAGCGCCG,-0.246
5,GCACATAA,0.12
6,AACCTGCC,-0.0615
7,CCAGGTAC,-0.122
8,CAGCAGAC,0.0511
9,CGGAGAAA,-0.155
10,CGAGTAGA,-0.104
11,ACTTGATG,0.203
12,ACAAAATC,0.0251
13,GGGAATCA,-0.156
14,CAAAGCCG,-0.0798
15,AAGGGACG,-0.155
16,ACAAAAGT,0.187
17,TAAAGGCA,0.0827
18,AACCACAT,0.274
19,GAAGTAGC,-0.136
20,GATGGGGA,-0.248
21,GGCCTTTA,-0.0983
22,GTGGCCAA,-0.139
23,ACCTGCGT,0.233
24,ATCAGTCC,-0.413
25,GGGTTGAA,-0.0682

row,Sequence,PBM E-score
1,CCTTAAGG,0.121
2,CGCATACG,0.107
3,CGCTAGGA,-0.0388
4,CCGAGGTC,-0.331
5,AAGTAAGC,0.107
6,TCTCCTCA,-0.254
7,GGAGTCTA,-0.269
8,ATCCTTAA,-0.0452
9,ACCCACGA,-0.0358
10,GTGACTAA,0.0628
11,GCCTAAGA,-0.106
12,GAGTCCGA,-0.012
13,GGCGAGTA,-0.0952
14,ATATCTCA,0.0665
15,GAGGCTGA,-0.174
16,TACGAGTA,0.185
17,CTCGTCCC,-0.182
18,CTCCAGCC,-0.351
19,ACCTTTCG,-0.227
20,ATTATTTG,0.235
21,CTTCCCAA,-0.102
22,GTGGGGGA,-0.322
